The values below come from the supplement of paper PMC11417369.

± gives the standard deviation of the averaged measurements. The list shows a part of the results.

The experiment has as its system PfAP2-EXP AP2 domain (GST-tagged). The experiment is described as follows: gcPBM binding intensity (ln(normalized median fluorescence intensity)); higher = stronger DNA binding. The gist of the method:
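GST-tagged P. falciparum DNA-binding domains produced in E. coli were incubated for 1 h on an Agilent 4 × 180k array of primer-extended double-stranded 36-bp intergenic genomic probes with negative controls. Binding intensity is the highest Masliner-normalised natural-log median intensity across replicate spots of either probe orientation, with bound protein detected by Alexa488 anti-GST antibody at 488 nm.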
“TTTTCTTTTACAAAGGGTACATAATTTAAATTCATA [XGTACX_site3876]”: the “gcPBM binding intensity (ln)” value was 8.35 ± 0.4. As to “TTTCTTCTGCATTATGCACACTATAATTCGTTAAAA [CACACA_site5568]”, the “gcPBM binding intensity (ln)” value stood at 9.04 ± 0.26. Then “ATAATATAAATATTAACACACATCCTTTTATGTATA [CACACA_site6685]”, with 8.46 ± 0.29.

“TTTATATATTATACATGTACATATTTATTTATATAA [XGTACX_site3474]”: the “gcPBM binding intensity (ln)” value turned out to be 8.57 ± 0.28. Then “CTTATATTAAAAACTTGTACACATGTTAAGAATTTT [XGTACX_site5857]”, with 8.43 ± 0.28.

Regarding “TATATGCACTTAATATGTACACAAAAAAAAAAAAAA [XGTACX_site6199]”, the “gcPBM binding intensity (ln)” value came out at 8.43 ± 0.53. Then “AAATAAGCATATACAAACATGCATACATATAAATAA [CACACA_negctrl_site246]”, with 8.85 ± 0.32; and “AAAAAAAAAAAATCATGTACTTATTTTTCATTGTTG [XGTACX_site1542]”, with 8.22 ± 0.26. Then “TATTTAAAAGTATATACACACAACTGGAATGAAAAG [CACACA_site4126]”, with 9.04 ± 0.52. Then “CATTATGTCATAAATGCACACATATATATATACATA [CACACA_site8454]”, with 8.59 ± 0.38.

As to “AAAATTAAAAAAATAAATACATTATATAATTAAAAA [CACACA_negctrl_site1426]”, the “gcPBM binding intensity (ln)” value came to 8.3 ± 0.33. Then “TATTTTAATCGTAAGTGTACTCTTTTAAGTATATGT [XGTACX_site8591]”, with 8.52 ± 0.31; and “ATTATAACACCTCCCCCCCTTTTTTTATGAAGACCA [CACACA_negctrl_site1043]”, with 10.6 ± 0.18. Then “TATGTATGCCCTAATGCATGTGAACAAAATAATATA [TGCATGCA_site407]”, with 8.89 ± 0.33; and “AACAGACATAGACACACACACATATATTTATTTATA [CACACA_site7571]”, with 8.64 ± 0.4. For the sequence “TTTTTTAAATTTTGAATTATAACTACATTAAAGAAA [GTGCAC_negctrl_site279]”, the “gcPBM binding intensity (ln)” value was 8.11 ± 0.45. Then “ATGCAAATAATATAAAGTACACAACATCGCCCAAAG [XGTACX_site1825]”, with 9.05 ± 0.38; and “TGTTGTAACAAAAGTACACACACATTTCTATAAATT [CACACA_site8894]”, with 8.45 ± 0.23. Then “ATTACATAACAATATACACACTATTGATTAAAGAGA [CACACA_site5602]”, with 8.52 ± 0.4. For the sequence “TTTATTAGATAACGATAAACGAAAAAAAAAAAATAA [GTGCAC_negctrl_site81]”, the “gcPBM binding intensity (ln)” value came out at 8.46 ± 0.53. Then “ATAATATAAATAAAGCGTACTTAATTTTATATATAT [XGTACX_site4626]”, with 8.29 ± 0.18; and “TTTTTTTTTTTTTTTACACACTATAGGGAAAAAAAA [CACACA_site1916]”, with 8.23 ± 0.39. Then “AAAAATATAATATATCTAAAATTTTTCATTAAATAT [XGTACX_negctrl_site274]”, with 7.91 ± 0.38; and “ATAAATAAAAATACATGAACAGGTCAGGTTATTTTT [CACACA_negctrl_site1007]”, with 8.12 ± 0.36; and “TTATATATAGAATAAACATGCATTTGTATATGAATA [TGCATGCA_site604]”, with 8.69 ± 0.46. Take “ACATATATATATTTATATATATATATATATATGTGA [CACACA_negctrl_site613]”: the “gcPBM binding intensity (ln)” value was found to be 8.32 ± 0.057. Then “TCACATACATTACTTACACACCATATTAATATATAC [CACACA_site8047]”, with 8.93 ± 0.38; and “AATAAAAAATAAAAAATAAACAGTATACATATATAT [GTGCAC_negctrl_site31]”, with 8.7 ± 0.42; and “TGTATATAAACAAGGGGTACAATAATATAAATAAAT [XGTACX_site8675]”, with 8.85 ± 0.44. Then “TCATATTAATTTGATAGTACATATACTTTGAAGTCC [XGTACX_site3767]”, with 8.43 ± 0.36; and “ATATAATATTACAAATGTACTTTAAAAAATTAGGAG [XGTACX_site3897]”, with 8.65 ± 0.42; and “TTGTTTCAAGAAAAAATCGAAAAACATAGAAAAAAA [XGTACX_negctrl_site615]”, with 8.53 ± 0.47. Then “ACATATAAAATATATACACACATATAAATACATTAA [CACACA_site3867]”, with 8.38 ± 0.41; and “TATATATCAAAAATATGTACACAGAAATATATATTA [XGTACX_site6997]”, with 8.72 ± 0.4; and “TTGCAATAATGTTGCACACTAAATAGTCATATATAA [CACACA_site263]”, with 8.41 ± 0.17.

Consider “ATTCTATATATATAAACACACAAATATTTTTATATA [CACACA_site1677]”, for which the “gcPBM binding intensity (ln)” value amounted to 8.39 ± 0.35.

Regarding “TTTTAGTGAAATGAGTGTACATTATATATTTTTTTT [XGTACX_site4892]”, the “gcPBM binding intensity (ln)” value is 8.38 ± 0.3.

Consider “ATATAAGGAAGGGATGCACACAAAAGGGTACATAAG [CACACA_site9328]”, for which the “gcPBM binding intensity (ln)” value turned out to be 8.84 ± 0.31. In the case of “AAGACTAATCTAGGTAGTACTTATATATCTTTATTT [XGTACX_site4572]”, the “gcPBM binding intensity (ln)” value was 8.37 ± 0.24.

As to TTTGGGATATTTACAGTGCAAAGATATTTTTATAAT, the “gcPBM binding intensity (ln)” value came to 8.625 ± 0.078.

Take “ATAACATAATAGCAACAATTTATTTCCTCTATAACA [CACACA_negctrl_site243]”: the “gcPBM binding intensity (ln)” value was 8.32 ± 0.33. Then “TTTTTTATATATGTGTGTGTGTGTGTGTCAAGTTTA [GTGCAC_negctrl_site460]”, with 8.6 ± 0.59; and “ATATTTTTGTTCAGGAGTACAGTTCAAGATGAAAAT [XGTACX_site4178]”, with 8.67 ± 0.34; and “TATAAATAATGTTAAACACACATACCGATATATAAT [CACACA_site5499]”, with 8.69 ± 0.52. Then “AAATTATTATGTATTTGTACACATAAGAATATAAAA [XGTACX_site6841]”, with 8.44 ± 0.4. For “AATGGGGAAGGTTCTACACACAACGCAAATGCCTTA [CACACA_site2758]”, the “gcPBM binding intensity (ln)” value was determined as 8.55 ± 0.51. As to “TCAGTTAATGTATATGTACACACGGTGAGTATATAT [CACACA_site3346]”, the “gcPBM binding intensity (ln)” value came to 8.54 ± 0.2. Then “AGAGAAAGAAAGAAATGTACAAATACCTACACACAT [XGTACX_site3140]”, with 8.73 ± 0.64; and “TATTTTTTTCATAACAGTACAATAATATATATTTTT [XGTACX_site5739]”, with 8.55 ± 0.42; and “GCACACACAAAAAAAGCATGCATACTAGCTATTTTT [TGCATGCA_site18]”, with 8.67 ± 0.4. Then “CTATAAATGAATGTTTGTACTTAATAATAAAAGAAA [XGTACX_site3170]”, with 8.49 ± 0.43. Then “TTTTTTACAAATGATATCATTTCTTTAAATATTAAA [TGCATGCA_negctrl_site279]”, with 8.46 ± 0.4; and “AAAAAACACCCATACACACACACACCGATATATATA [CACACA_site5808]”, with 8.69 ± 0.4; and “TATTCGTGCAATAATAGTACACTTATAAATTATTCA [XGTACX_site8993]”, with 8.595 ± 0.064. As to “AATGAAATAAATAAGGGTACACATAAATATATATAT [XGTACX_site7006]”, the “gcPBM binding intensity (ln)” value turned out to be 9.52 ± 0.12. Then “AATCAAAAAAAATGTTGTACGCCTAATTATAATTAA [XGTACX_site8906]”, with 8.57 ± 0.31; and “TTATAAATTTAAAGTAGTACTATACTACTATTTTAT [XGTACX_site3038]”, with 8.06 ± 0.29. Then “TTTATAAGAATTACTAGTACATATAAGGAATTATAT [XGTACX_site3953]”, with 8.29 ± 0.33; and “CATTTTTTATAATAATGTACATGTATTAAAAAAAAA [XGTACX_site6390]”, with 8.43 ± 0.29; and “ATCCACAAAATAGGATGTACATATAAAATAAATAAA [XGTACX_site5362]”, with 8.63 ± 0.5. Then “TATGGAATAATACGCGTACACACATATATATATTAA [CACACA_site132]”, with 8.93 ± 0.4; and “TTTACATACAAATTAACACACATATAGAAAAGAGAA [CACACA_site1889]”, with 8.97 ± 0.52; and “CTCGTATATATAATACGTACATATTATATATATATA [XGTACX_site1704]”, with 9.71 ± 0.49. “CCTTCATCATATTTAACACACAGAGAAAAAGCGGAT [CACACA_site274]”: the “gcPBM binding intensity (ln)” value is 8.88 ± 0.64. Consider “AAAAAAAAAAAAAAAAAAACCACAAACAAATATGAA [TGCATGCA_negctrl_site34]”, for which the “gcPBM binding intensity (ln)” value was found to be 8.845 ± 0.035. Then “TCCTTTCTTTTTTAAACATGCATATGTAATATAAAT [TGCATGCA_site979]”, with 8.77 ± 0.042; and “TTTTAAAATATATTTGTATATATATATATATATATA [XGTACX_negctrl_site536]”, with 10.4 ± 0.35; and “ATAATATAATAATACACACTCATTATATATATAAAG [CACACA_site3956]”, with 8.37 ± 0.47. Then “AAAAAAAATAAACACACACACATACCCATAAATATA [CACACA_site5980]”, with 8.72 ± 0.53; and “TTTGAAATATTTATTTGTACATATACACACTTAAAT [XGTACX_site8321]”, with 8.52 ± 0.38; and “ATATTATTTTGTCAGGGTACATTCCATAAGTTTTTT [XGTACX_site6855]”, with 8.8 ± 0.42. Then “TATTTATGTAGATACACACCCATGTTATATGGAGGT [CACACA_site3461]”, with 8.42 ± 0.31; and “TTTCTTTTTTTTTTTATTTACCTGAATTATGTATTA [TGCATGCA_negctrl_site345]”, with 8.56 ± 0.7. For “GCTTGTTCAAAAATGAGTACATACAAATAGTTGTAT [XGTACX_site1770]”, the “gcPBM binding intensity (ln)” value is 8.645 ± 0.007. Then AATAGATTTTTATGCGTGCACACATTTAACAAAAAA, with 8.88 ± 0.11; and “GTGCTAGTATTTAATACACACAATTGAAGTTCCTGA [CACACA_site1452]”, with 8.39 ± 0.36; and “TTCTGTTCAAAATATGAACACACACCGATATATATA [CACACA_site8637]”, with 8.49 ± 0.38.

Take “TACACCAGTTGTGGGAGTACACAAAAAAAGGGAAAA [XGTACX_site6047]”: the “gcPBM binding intensity (ln)” value was 8.39 ± 0.31. Then “AAAAATATAAAGAAATGTACTTATAAAAATCCCTAC [XGTACX_site3824]”, with 8.46 ± 0.31. As to “TGCAGTCTGGAGAAAAGTACACAGTATCTGGTAGCT [XGTACX_site2013]”, the “gcPBM binding intensity (ln)” value was determined as 8.59 ± 0.19. Then “AATATCATAAAATAAAGTACAAATATATATTGAAAA [XGTACX_site8813]”, with 8.71 ± 0.45; and “CTTTATCTTTTTCATTGTACTTTATTTTAAAATTAA [XGTACX_site4858]”, with 8.94 ± 0.34. Then “TTCTGGTGTAAATGCACACAGAAGAAGAAAAAAAAA [CACACA_site3685]”, with 8.68 ± 0.33. For the sequence “TAATTTAATTTTCCAAGAAAAAAAAAAGAAAAAAGA [CACACA_negctrl_site1703]”, the “gcPBM binding intensity (ln)” value was 8.27 ± 0.37. Then “TAACATCCTAATGTCACACATGTTATAGGTTTAAAT [CACACA_site5649]”, with 8.21 ± 0.26; and “ATGATCATAAAACACACACACAAAAAAAAAAAAAAA [CACACA_site1805]”, with 8.12 ± 0.64. Then “ATTAATTTTATATATGCACACAAAATATGTTCATAT [CACACA_site9350]”, with 8.28 ± 0.15. Then “AATAATATTTATTTTTGTACATATGTGCATTATAAA [XGTACX_site3682]”, with 8.63 ± 0.12.
